{"source": "patent US20250248397A1", "about": "“CHITOSAN ENCAPSULATION OF ABSOLUTE (ESSENTIAL) ROSEMARY, PEPPERMINT, AND COTTONSEED OILS” (GroPro Corporation, priority 2024, published 2025)", "key": {"[1]": {"test_system": "root-knot nematodes (Meloidogyne spp.)", "assay": "Nematocidal activity on hatched root-knot nematodes in Petri dish", "type": "in vivo", "settings": "2000 ppm dilution; 1 day; 15 nematodes", "description": "In some embodiments, the nematodes used in the experiments were mainly Meloidogyne spp. The below disclosed experiment results are related to the evaluation of nematocidal activity of naturally derived material.\nThe tomato roots infected with root-knot nematodes were washed with running water and were then cut to a size of about 1 cm, after which 50 g of the cut roots were placed in a 500 ml round-bottom flask containing 200 ml of 0.5% sodium hypochloride (NaOCl), stopped with a rubber stopper, and shaken vigorously for 3 min to sterilize the roots and at the same time burst the egg bag. Thereafter, the solution was passed through a sieve in which 200 mesh was superimposed on 500 mesh, and washed with distilled water, so the eggs of the root-knot nematodes from which the NaOCl solution was removed were recovered.\nNext, the eggs of the root-knot nematodes thus recovered were surface-sterilized with 0.5% NaOCl for 10 min, washed thoroughly with sterile distilled water, placed in a phosphate buffer (1%) containing sterilized normal saline, and hatched in an incubator at 25° C.\nThereafter, each mixed solution was diluted to 2000 ppm, 2 to 3 ml thereof was poured into a Petri dish, after which 15 hatched root-knot nematodes were placed in the Petri dish, and nematocidal activity was measured and the results thereof are shown in Table 1 below. […]"}, "[2]": {"test_system": "tomato seedlings", "assay": "Phytotoxicity of geraniol, drenching treatment of potted tomato seedlings", "type": "in vivo", "settings": "tomato seedlings", "excerpt": "Sterilized soil was uniformly mixed, 300 g thereof was then placed in each pot, and tomato seedlings not infected with root-knot nematodes were transplanted thereto."}, "[3]": {"test_system": "Black Sigatoka", "assay": "Field trials in bananas against black Sigatoka", "type": "in vivo, Mycosphaerella fijiensis", "settings": "applied as tank mixes with tea tree oil", "description": "Tea tree oil was used in disclosed experiments and trials as an 53mulsifiable concentrated formulation. For field trials in bananas, tea tree oil was applied similarly to conventional synthetic fungicides, with mineral oil, surfactants, and/or just water. The following fungicides, registered for use against black sigatoka in bananas, were tested for comparison: azoxystrobin (Bankit 25 SC), trifloxystrobin (Flint, Tega 50 WG), difenoconazole (Score, Sico 25 EC), mancozeb (43 SC Duwest 80 WP), flutriafol (Impact, 125 SC) and tridemorph (Calixin 86 OL)."}}, "data": [{"molecule": "C/C=C(\\C)C(=O)O[C@H]1C[C@@H](OC(C)=O)[C@@]2(C(=O)OC)CO[C@H]3[C@@H](O)[C@@](C)([C@]45O[C@@]4(C)[C@H]4C[C@@H]5O[C@@H]5OC=C[C@@]54O)[C@H]4[C@]1(CO[C@]4(O)C(=O)OC)[C@@H]32", "note": "[Azadirachtin, azadirachtin]", "values": [{"measurement": "number of killed root-knot nematodes", "setting": "[1]", "value": 7}]}, {"molecule": "CC(C)=CCC/C(C)=C/CO", "note": "[Geraniol, 3,7-dimethyl-2,6-octadien-1-ol]", "values": [{"measurement": "phytotoxicity symptoms", "setting": "[2]; at 4000 ppm or more", "value": "all tomato seedlings collapsed and withered"}, {"measurement": "phytotoxicity symptoms", "setting": "[2]; concentration range of 100 ppm to 3,000 ppm", "value": "no particular phytotoxicity symptoms"}]}, {"molecule": "CC1COC(Cn2cncn2)(c2ccc(Oc3ccc(Cl)cc3)cc2Cl)O1", "note": "(centres unmarked) [difenoconazole]", "values": [{"measurement": "control of Black Sigatoka", "setting": "[3]", "value": "effectively controlled"}]}, {"molecule": "pyrethrin", "values": [{"measurement": "number of killed root-knot nematodes", "setting": "[1]", "value": 5}]}]}
